# Assay results reported in PMC4336329 (PLoS ONE, 2015).
# Screen size: about 310,000 compounds; about 14,000 (4.5%) showed an effect of 50% or more. The effect is printed as a negative number. The list shows a part of the results.
# Target: human ether-à-go-go-related gene (hERG) potassium channel (human, UniProt Q12809)
# Assay: primary screen, population patch clamp on CHO cells stably expressing hERG
# 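Also: peak tail current of the secondary pulse compared with the same well before compound.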
# Chain of human ether-à-go-go-related gene (hERG) potassium channel (Q12809 whole entry, looked up): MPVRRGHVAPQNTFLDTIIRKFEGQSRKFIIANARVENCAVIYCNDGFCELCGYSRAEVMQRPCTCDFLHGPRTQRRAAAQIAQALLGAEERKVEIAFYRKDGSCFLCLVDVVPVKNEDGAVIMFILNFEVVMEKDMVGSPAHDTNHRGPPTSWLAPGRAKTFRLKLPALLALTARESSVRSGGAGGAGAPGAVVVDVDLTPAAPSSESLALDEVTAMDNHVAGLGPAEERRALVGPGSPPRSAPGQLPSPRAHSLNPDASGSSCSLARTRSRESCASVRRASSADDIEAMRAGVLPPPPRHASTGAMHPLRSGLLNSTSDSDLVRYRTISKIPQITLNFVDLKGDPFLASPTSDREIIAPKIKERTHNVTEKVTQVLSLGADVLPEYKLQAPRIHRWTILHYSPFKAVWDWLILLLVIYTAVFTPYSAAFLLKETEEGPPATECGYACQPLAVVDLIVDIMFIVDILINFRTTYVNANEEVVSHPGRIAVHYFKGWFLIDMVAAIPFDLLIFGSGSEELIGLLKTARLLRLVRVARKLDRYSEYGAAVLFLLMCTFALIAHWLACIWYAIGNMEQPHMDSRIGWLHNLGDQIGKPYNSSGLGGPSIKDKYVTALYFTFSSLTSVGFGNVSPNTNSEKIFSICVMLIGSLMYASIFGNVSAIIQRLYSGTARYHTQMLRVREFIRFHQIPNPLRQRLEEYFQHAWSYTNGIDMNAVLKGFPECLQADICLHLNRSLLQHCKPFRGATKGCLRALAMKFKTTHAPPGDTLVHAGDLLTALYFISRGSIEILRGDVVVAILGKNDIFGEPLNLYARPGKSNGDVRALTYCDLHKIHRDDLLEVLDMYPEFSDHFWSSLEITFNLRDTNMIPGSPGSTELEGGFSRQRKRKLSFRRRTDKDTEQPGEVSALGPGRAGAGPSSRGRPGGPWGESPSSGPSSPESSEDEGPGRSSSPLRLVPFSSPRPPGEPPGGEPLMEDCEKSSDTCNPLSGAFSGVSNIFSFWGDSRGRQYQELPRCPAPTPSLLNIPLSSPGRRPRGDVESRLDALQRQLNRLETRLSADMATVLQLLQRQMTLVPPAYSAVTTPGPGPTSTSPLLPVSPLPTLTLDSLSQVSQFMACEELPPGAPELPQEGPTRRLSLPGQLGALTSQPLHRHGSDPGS
row,SMILES,"hERG current change (%, negative = inhibition) at 10uM [%]"
1,Cc1c(N=C2N=C(NC(=O)c3cccs3)c3ccccc32)c(=O)n(-c2ccccc2)n1C,-0.696
2,Cc1ccc(C(=O)NC(NCc2ccco2)C(Cl)(Cl)Cl)cc1 (stereo not shown),-13.5
3,CSc1nc2ncc(C#N)cn2n1,19.5
4,CN1CCN(CCc2cn3ncc(C#N)c3nc2-c2ccc(F)cc2)CC1,-22.9
5,Cn1c(SCC2CCCO2)nnc1-c1cccc([N+](=O)[O-])c1 (stereo not shown),8.76
6,COC(=O)c1[nH]c2cccc(OC)c2c1NC(=O)CCN1CCC(C(N)=O)CC1,5.84
7,COC(=O)c1ccccc1S(=O)(=O)N(Cc1cc2ccc(OC)cc2[nH]c1=O)CC1CCCO1 (stereo not shown),-25.7
8,CCN(CCCNC(=O)C1CCCN(S(=O)(=O)c2cnc[nH]2)C1)c1ccccc1 (stereo not shown),-9.26
9,COc1cccc(-n2c(C)nnc2SCC(=O)Nc2ccccc2N2CCOCC2)c1,-42
10,CC1Oc2ccccc2C(=O)N(CC(=O)c2ccc3c(c2)OCCO3)C1=O (stereo not shown),4.12
11,Cn1ccnc1SCC(=O)NC1CCCCC1,24.1
12,Cc1onc(-c2c(Cl)cccc2Cl)c1C(=O)N1CCCc2ccccc21,-0.703
13,CCOC(=O)NC(CC(=O)O)c1ccc(OCC)cc1 (stereo not shown),3.69
14,CCOC(=O)c1cn(Cc2cccc(Cl)c2)c2cc(C)nn2c1=O,-19.9
15,O=C(c1ccc(Cl)s1)N(Cc1nnc(-c2ccccc2Cl)o1)C1CC1,-1.01
16,O=C(O)CCCN1C(=O)/C(=C\c2ccc(-c3nc4ccccc4s3)o2)SC1=S,16.5
17,CN(CC(=O)NCC(=O)Nc1ccc(F)c(F)c1F)C1CCS(=O)(=O)C1 (stereo not shown),7.88
18,COc1cccc(CNC(=O)CSc2ccc(-c3ccncc3)nn2)c1,-25.3
19,CCCCCCCc1c(O)nc(SCC(=O)O)[nH]c1=O,13.5
20,CC(NC(=O)CCCOc1ccc(Cl)cc1)c1ccccc1 (stereo not shown),-7.83
21,CC(C)c1nnc2c(N(C)S(=O)(=O)c3ccccc3)nc3ccccc3n12,-23.8
22,CCOC(=O)c1sc(N2C(=O)C(O)=C(C(=O)c3ccco3)C2c2ccc([N+](=O)[O-])cc2)nc1C (stereo not shown),9.53

row,SMILES,"hERG current change (%, negative = inhibition) at 10uM [%]"
1,CCC(OC(=O)c1cccs1)C(=O)NCc1ccc(C)cc1 (stereo not shown),17.7
2,Cc1nnc(NC(=O)c2cccc(NC(=O)C(C)C)c2)s1,12.1
3,COc1cccc(NC(=O)[C@@H]2CCCN2S(=O)(=O)c2cccc3cccnc23)c1,-5.87
4,Cc1ccc(C(=O)Nc2cc(Cl)ccc2-n2cncn2)s1,-19
5,O=C(OCc1c(F)cccc1Cl)c1cccnc1Cl,-0.507
6,Fc1ccccc1CSc1nncn1NCc1cccs1,4.51
7,Cc1ccc(CNC(=O)C2C3C=CC4(CN(Cc5cccnc5)C(=O)C24)O3)cc1 (stereo not shown),0.287
8,COc1ccc(NC(=S)N(CCc2nc3cc(C)c(C)cc3[nH]2)Cc2cccnc2)cc1,3.69
9,Cc1cccc2c1NC(=O)C2=Nc1ccc(Cl)cc1,5.73
10,COc1ccccc1C(=O)N1CCCN(C(=O)c2ccccc2OC)CC1,18.7
11,CCOCc1c(C(=O)NC2CCCCCC2)oc2ccccc12,8.56
12,COc1ccc(S(=O)(=O)Nc2c(C)n(C)n(-c3ccccc3)c2=O)c(Cl)c1Cl,-37
13,COc1ccc(-c2c[n+]3c(n2-c2ccccc2)CCCCC3)cc1.[Br-],-18.6
14,CCN(CC)C(=O)C1CCN(Cc2cn(C)nc2-c2ccc(Oc3ccccc3)cc2)CC1,-46.9
15,Cn1cccc1/C=C1/SC(=S)N(CC(=O)O)C1=O,8.14
16,COc1ccc(C(=O)Nc2cccc(-c3ccc4nncn4n3)c2)cc1,-0.753
17,COc1cc(NC(=O)CCN2CCN(C/C=C/c3ccccc3)CC2)cc(OC)c1,-69.3
18,CCC(=NCCO)c1c(O)n(C2CCCCC2)c(=O)[nH]c1=O,-14.6
19,Cc1ccc(NC(=S)N2CCN(C(=O)C3CCCO3)CC2)c(C)c1 (stereo not shown),-9.39
20,COc1ccc(C(=O)Nc2cccc(N(C)S(C)(=O)=O)c2)cc1OC,0.733
21,Cc1cc(NC(=O)COC(=O)C2CC(=O)N(c3ccc(Cl)cc3)C2)no1 (stereo not shown),-12.2
22,COc1ccc(-c2nc(N)n(C(=O)c3ccc(C)cc3)n2)cc1,6.84

row,SMILES,"hERG current change (%, negative = inhibition) at 10uM [%]"
1,CCc1nnc(NC(=O)COc2ccc3ccccc3c2)s1,19.9
2,CC(C)C[C@H](NC(=O)[C@H](Cc1ccccc1)n1c(=O)[nH]c2ccccc2c1=O)C(=O)N1CCC(C(=O)O)CC1,3.82
3,CCN(CC(=O)Nc1ccc(OC)cc1)C(=O)c1ccc2[nH]c3c(c2c1)CC(C)CC3 (stereo not shown),-11.3
4,Cc1ccc(-c2csc3ncnc(SCc4ccc(C(=O)O)cc4)c23)cc1,6.68
5,c1cncc(-c2cn(C[C@H]3CC[C@@H]([C@@H]4CC[C@H](Cn5cc(-c6cccnc6)nn5)O4)O3)nn2)c1,-58.5
6,COc1ccccc1C(=O)Oc1cc(N)n(S(=O)(=O)c2ccccc2)n1,8.72
7,N#Cc1c(-c2ccccc2)cc(-c2ccccc2)nc1SCc1nnc(-c2ccccc2)o1,10.8
8,O=C(O)CC1(CC(=O)Nc2ccc3ccccc3n2)CCCCC1,14.6
9,CCOC(=O)N1CCN(S(=O)(=O)c2c(C)cc(C)cc2C)CC1,-5.61
10,CC1CC(C)CN(Cc2nc3c(c(=O)n(C)c(=O)n3C)n2CCN2CCOCC2)C1 (stereo not shown),-4.59
11,CCc1nc2c(c(=O)c3ccccc3n2C)c(=O)n1-c1ccc(F)cc1,-8.56
12,COCCN(C(=O)CCC(=O)Nc1nccs1)C(C(=O)NCCC(C)C)c1ccc(F)cc1 (stereo not shown),-14.4
13,Cc1ccc(Nc2ccc(C(=O)O)cc2[N+](=O)[O-])cc1,15.1
14,C=CCn1c(SCCN2C(=O)c3ccccc3C2=O)nc2scc(-c3ccccc3)c2c1=O,-0.665
15,CC(C)(C)OC(=O)N1CCC(c2c(C(=O)N3CCN(C(=O)c4ccco4)CC3)cnn2-c2ccc(F)cc2F)CC1,-19.6
16,O=C(CSc1ccc([N+](=O)[O-])cn1)Nc1ccc2[nH]c(=O)[nH]c2c1,11.8
17,COc1cccc(-c2nnn(CC(=O)N(CC(C)C)C3CCS(=O)(=O)C3)n2)c1 (stereo not shown),-1.26
18,O=C(CCc1nnc2n(Cc3ccc(F)cc3)c(=O)c3ccccc3n12)N1CCN(c2ccccn2)CC1,-79.2
19,CCOC(=O)c1c(C)[nH]c(C)c1S(=O)(=O)N(C)CC(=O)Nc1ccc(C)cn1,-1.35
20,Cc1csc(=O)n1CCC(=O)OCC(=O)c1c(N)n(CC(C)C)c(=O)n(C)c1=O,-26.2
21,O=C(NCCCN1CCCC1)c1ccc(Cn2c(=S)[nH]c3ccc(Br)cc3c2=O)cc1,-14.5
22,CC1C(c2ccccc2)=NNc2nc3c(c(=O)n(C)c(=O)n3C)n21 (stereo not shown),3.99

row,SMILES,"hERG current change (%, negative = inhibition) at 10uM [%]"
1,CC1=C(C(=O)OCC(C)C)C(c2ccc(Br)s2)NC(=O)N1 (stereo not shown),7.07
2,C=CC[N+](C)(C)c1ccc(CCC(=O)CCc2ccc([N+](C)(C)CC=C)cc2)cc1.[Br-],0.803
3,CCOc1ccccc1-c1nc(-c2ccc(NC(=O)Cc3ccccc3OC)cc2)no1,17.4
4,Cc1ccc(-n2nnc3c(=O)n(CC(=O)NCC4CCCO4)cnc32)cc1 (stereo not shown),-4.75
5,CN1CCN(c2ccc(NC(=O)CN3CCOCC3)cc2F)CC1,24.5
6,CC(C)(C)c1nc[nH]c(=O)c1Br,-0.274
7,COc1ccc2[nH]c(=O)c(-c3nnn(-c4ccc(Cl)c(Cl)c4)n3)cc2c1,8.2
8,O=C(O)c1cc(-c2cc3ccccc3o2)nn1-c1ccccc1,2.03
9,O=C(N/N=C/c1ccccc1O)/C(=C/c1ccccc1)CCO,-8.63
10,C=CCN1C(=O)CSC1=Nc1ccc(C(=O)O)cc1,4.98
11,Cc1ccc(C(=O)Nc2ccc3c(c2)OCCO3)c(Cl)c1,6.17
12,CC(C)(C)NC(=O)C(c1ccc(F)cc1)N(CC1CCCO1)C(=O)CCC(=O)Nc1ccccn1 (stereo not shown),-3.52
13,CCCCOc1ccc(C(=O)N/C(=C\c2cccc([N+](=O)[O-])c2)C(=O)OCCC)cc1,13
14,O=C(NCc1ccc(CNC(=O)c2ccco2)cc1)c1ccco1,14.2
15,Cc1ccccc1CN(C)C(=O)CNC(=O)c1ccc2ccccc2c1,-8.5
16,COc1ccc(C(=O)c2ccc(Br)cc2)cc1,-0.756
17,Cc1nc(Oc2cccc(Cl)c2)c2oc3ccccc3c2n1,24.3
18,COc1cc2c(cc1OC)C(COc1ccc(F)cc1)N(C(=O)c1ccco1)CC2 (stereo not shown),-28.6
19,O=C(OCc1ccco1)c1ccc(S(=O)(=O)N2CCCCC2)cc1,-8.51
